Assay results taken from the RNAGym collection of RNA variant scans (doi:10.7554/elife.90254).
Read counts are not given, so values of variants with three or more changes are uncertain.

B1: LINE1-mini (parent)
chain: GGCAGAGCUCAACACAGCGUGGCAAAGUGGCUGUGGCUAGACUGCC

Variants of: B1
Test: self-cleavage, relative activity (ratio to wild type); higher = more cleavage; in vitro, sequencing; the parent is a self-cleaving ribozyme
Work on GGCAGGGCUGAUGACAGCGUGGCAAAGUGGCUGUGUCUAGACUGCC [A6G C10G A12U C13G G36U] yielded a self-cleavage of 0.02.
With GGCAGGGCUCAACACAGCGUCGCAAAGUUGCUGUGGCUAGACUGCC [A6G G21C G29U] the self-cleavage was 0.03.
Variant GGCAGGGCUCAACACAGUGUGGCAAAGUGGCUGUGGCCAGCCUGUC [A6G C18U U38C A41C C45U] has a self-cleavage of 0.05.
In the case of GGCAGGGCUCAACACAGCGUGGCAAAGUGGUUGUGGCUAUACUGCC [A6G C31U G40U], the self-cleavage is reported as 0.03.
Variant GGCAGGGCUCAACACAGGAUGGCAAAGUGGCUGUGGCAAGACUGCC [A6G C18G G19A U38A] has a self-cleavage of 0.01.
Work on GGCAGGCCUCAACACAGCGUGGCAAAGUGUCUCUGCCUAGACUGCC [A6G G7C G30U G33C G36C] yielded a self-cleavage of 0.04.
For GGCAGGGCUCAACACAUCGUGGCAAAGUGGCUGUGGCUUGACUGUC [A6G G17U A39U C45U], the self-cleavage was 0.02.
With GGCAGGGCUCAAAACAGCGUGGCAAAGUGUCUGAGGCUAGACUGCA [A6G C13A G30U U34A C46A] the self-cleavage was 0.
GGCAGGGCUCAACACAGGGUGGCAAAGUGGCUGUGGCUAGAAUGCG [A6G C18G C42A C46G] gave a self-cleavage of 0.04.
Work on GGCAGGGCUAAACACAGCGUGGCAAAGUGGCUGAGGCUAGACUGCC [A6G C10A U34A] yielded a self-cleavage of 0.07.
GGCAGGGCUCAACAAAGCGUGACAUAGUGGCUGUGGCUAGACUGCC [A6G C15A G22A A25U] showed a self-cleavage of 0.08.
GGCAGGACUCAACACAGCGUGGCAAAGAGGCUGUGGCUAGACUGCC [A6G G7A U28A] showed a self-cleavage of 0.06.
Variant GGCAGGGCUUAACACAGCGUGGCAAGGCGGCUGUGGCUAGACUGCC [A6G C10U A26G U28C] has a self-cleavage of 0.01.
For GGCAGGGCUGAACACAGCGUGUCAAAGUGGCUGUGGCUUGACUGUC [A6G C10G G22U A39U C45U], the self-cleavage was 0.02.
In the case of GGCAGGGCUCAACACAUCGUGGCAAAGUGGCUGUGGCUAGACUACC [A6G G17U G44A], the self-cleavage is reported as 0.39.
GGCAGGGCUCAAAACAGCGUGGCAAAGAGGCUGUGGUUAGACUGCC [A6G C13A U28A C37U] showed a self-cleavage of 0.05.
GGCAGGGCUCAACACAGAGUGGCAAAGUCGCUGUGGCUAGACUGCC [A6G C18A G29C] showed a self-cleavage of 0.23.
With GGCAGGGCUGAACACAGCAUGGCAAAGUGGUGGUGGCUAGACUGCC [A6G C10G G19A C31U U32G] the self-cleavage was 0.
With GGCAGGGCUCAACAAAGCUUGGCAAAGUUGCUGUGAUUAAACAGCC [A6G C15A G19U G29U G36A C37U G40A U43A] the self-cleavage was 0.04.
In the case of GGCAGGGCUCAACACAGCUUGGCAAAGAGGCUCUGGCUAGACUGCC [A6G G19U U28A G33C], the self-cleavage is reported as 0.03.
Variant GGCAGGUCUCAACACAGCGUGGCAAAGUGGCUGUGGCUAGACCGCC [A6G G7U U43C] has a self-cleavage of 0.02.
In the case of GGCAGGUCUCAACCUAGCGUGGAAAAGUGGCUGUGGCUAGAUUGCC [A6G G7U A14C C15U C23A C42U], the self-cleavage is reported as 0.12.
GGCAGGGCUCAACACAGUGUGGCAGAGUGGCAGUGGCUAGUCUGCC [A6G C18U A25G U32A A41U] gave a self-cleavage of 0.03.
In the case of GGCAGGGCUCAACACAGCGUGGCAAAGUGGCUGUGGUUAGACUGCG [A6G C37U C46G], the self-cleavage is reported as 0.05.
Variant GGCAGGGCUCAACACAUAGUGGCAAAGUGGCUGUGGCUAGACUGCC [A6G G17U C18A] has a self-cleavage of 0.
With GGCAGGGCUCAACACAGAGUGUCAAAGUGGCUGUGGCUAGACUGCC [A6G C18A G22U] the self-cleavage was 0.15.
GGCAGGUCUGAACACAACGUGGCAAAGUGGCUGUGGCUAGACUGCC [A6G G7U C10G G17A] showed a self-cleavage of 0.03.
In the case of GGCAGGGCUCAACAGAGCGUCGCAAAGUGGCCCUGGCUAGACUGCC [A6G C15G G21C U32C G33C], the self-cleavage is reported as 0.01.
GGCAGGGCUCAACACAUCGUGGCAAAGUGGCUGUAGCUAGACUGCG [A6G G17U G35A C46G] gave a self-cleavage of 0.02.
Work on GGCAGGGCUGAAGACAGCGAGGCAAAGUAGCUGUGGCUAGACUGCC [A6G C10G C13G U20A G29A] yielded a self-cleavage of 0.01.
With GGCAGGGCUGAACACAGCGAGGCAAAGUAGCUGUGGCCAGACUGCC [A6G C10G U20A G29A U38C] the self-cleavage was 0.01.
GGCAGGGCUUAACACAGCGUGGCAAAGUGGCUGUAGCUAGACUGCC [A6G C10U G35A] gave a self-cleavage of 0.04.
GGCAGGGCUCAACAUAGCGUGGCAAAGUGGCUGUGGCCAGUCUGGA [A6G C15U U38C A41U C45G C46A] showed a self-cleavage of 0.
Work on GGCAGGGCUCAACACAGCGUCGCAAAGUGGCUGUGGCUAGUCUGCC [A6G G21C A41U] yielded a self-cleavage of 0.02.
Work on GGCAGGGCUCAACACAGCGUGGAAAACUGGCUGUGGCUAGACUGCC [A6G C23A G27C] yielded a self-cleavage of 0.03.
Work on GGCAGGGCUCAACACACCGUGGCAAAGUGGGUGUGGCUAGACUGCC [A6G G17C C31G] yielded a self-cleavage of 0.
Variant GGCAGGGCUCAACACAGCAUGGCAAAGUGGCUGUGGCUAGACUACA [A6G G19A G44A C46A] has a self-cleavage of 0.15.
With GGCAGGGCUCAACACAUCUUGGCAAAGUGGCUGUGGCUAGACUGCC [A6G G17U G19U] the self-cleavage was 0.02.
For GGCAGGGCUCAACAGAGCGUGGCAUAGUAGUUGUGGCUAUACUGCC [A6G C15G A25U G29A C31U G40U], the self-cleavage was 0.01.
Work on GGCAGGUCUCAACUCAGCGUGGCAAAGUGGCUGUGGCUAGACUGCC [A6G G7U A14U] yielded a self-cleavage of 0.09.
GGCAGGGCUGCACAGAGCGUGGCAAAGUGACUGUGACUAGACUGCC [A6G C10G A11C C15G G30A G36A] gave a self-cleavage of 0.01.
With GGCAGGGCUCAACACAGCGUGGAAAAGUGGGUGUGGCUAGUCUGCC [A6G C23A C31G A41U] the self-cleavage was 0.08.
GGCAGGGCUCAACAUAGCGUGGCAAAGUGGCUGUGGCUAGAGUACC [A6G C15U C42G G44A] gave a self-cleavage of 0.02.
Variant GGCAGGUCUCAACACAGCGUGGCAAAGUGGGUGUGGCUAGACUUAC [A6G G7U C31G G44U C45A] has a self-cleavage of 0.01.
GGCAGGGCUCAACACAGCGUCUCAAAGUGGCUGUGGCUAGACUGCC [A6G G21C G22U] gave a self-cleavage of 0.02.
GGCAGGGCUUAACACAGCGUGGCAAAGUGUCUGUGGCUAGACUGCC [A6G C10U G30U] showed a self-cleavage of 0.04.
With GGCAGGGCUCAACACAGCUUGCCAAAGUGGCUGUGGCUAGACUGCC [A6G G19U G22C] the self-cleavage was 0.08.
Variant GGCAGGGCUCAACACAGCGUGGCAAAGUGGCUGUGGGGAGACUGCC [A6G C37G U38G] has a self-cleavage of 0.01.
Variant GGCAGGGCUCAACAUAGCGUGGCAAAGUGGCUGUGGCUAGACUGAC [A6G C15U C45A] has a self-cleavage of 0.04.
Variant GGCAGGGCUCAACAAAGCGUGGCCAAGUGGCCGUGGCUAGACUGCC [A6G C15A A24C U32C] has a self-cleavage of 0.21.
Work on GGCAGGGCUCAACACAACGUGGCAAAGUGGCUGUGGCUAGACUUCC [A6G G17A G44U] yielded a self-cleavage of 0.05.
GGCAGGGCUCAACACAGAGUGGCAAAGGGGCUGUGGCUAGACUUCC [A6G C18A U28G G44U] showed a self-cleavage of 0.05.
In the case of GGCAGGUCUCAACACAGAAUGUCAAAGUGGCAGUGGCUAGUCUGCC [A6G G7U C18A G19A G22U U32A A41U], the self-cleavage is reported as 0.11.
Variant GGCAGGGCUCAAUACAGCGGGGCAAAGUGGCUGUGGCUAGACUGCC [A6G C13U U20G] has a self-cleavage of 0.61.
Variant GGCAGGGCUCAACACAGCGUGGAAAAGUUGCUGUGGCUAAACUGCC [A6G C23A G29U G40A] has a self-cleavage of 0.02.
With GGCAGGGCUCAAUACAGCGUGGGAAAGUGGCAGUGGGUAGAUUGCC [A6G C13U C23G U32A C37G C42U] the self-cleavage was 0.13.
